Data on three compounds can be found in PubChem BioAssay (EPA / NIEHS).

Molecules are shown by their SMILES. Certain results were filed several times, with different values. Only these are listed. The source may hold further records. Values given together are repeated measurements across runs, samples, wells, individuals or studies. Results filed as inconclusive are left out. Rule for the calls, unless noted: active = hit-call score of the fitted dose curve at least 0.9, where 1 is the maximum; inactive = score below 0.9. The source holds several records for some structures; these can differ, active in one and inactive in another.

A short description of experiment [1]: ATG_PPRE_CIS: Attagene CIS-FACTORIAL HepG2 Assay for human Peroxisome Proliferator-activated Response Element (PPRE) (AID 2282958). The settings on record: HepG2 PPRE cis-element reporter, Attagene transcription factor profiling; actives raise or lower the signal. In outline:
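After human HepG2 hepatoma cells were transiently transfected with cis-promoter reporter constructs, they were exposed to test chemicals for 24 hours. Reporter RNA was then reverse-transcribed, PCR-amplified, FAM-labeled, HpaI-digested and quantified by capillary electrophoresis.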

In experiment [2] the target is Transcription factor Sp1 (Homo sapiens) (UniProt P08047). Description: ATG_Sp1_CIS: Attagene CIS-FACTORIAL HepG2 Assay for human Specificity Protein 1 (Sp1) (AID 2282961). The settings on record: HepG2 Sp1 cis-reporter transcription, actives raise or lower the signal. The procedure, abridged:
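After transient transfection of HepG2 cells with cis-promoter reporter units and 24 h chemical treatment, reporter transcripts were quantified by RT-PCR and capillary electrophoresis fluorescence. Gain- and loss-of-signal fitted against DMSO.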

For experiment [3], the target named is Nuclear receptor subfamily 1 group I member 2 (Homo sapiens) (UniProt O75469). In words: ATG_PXR_TRANS: Attagene TRANS-FACTORIAL HepG2 Assay for human Pregnane X Receptor (PXR) (AID 2283008; active = hit-call score of the fitted dose curve at least 0.9, where 1 is the maximum). The procedure, abridged:
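Read-out is fluorescence of labelled reporter cDNA fragments separated by capillary electrophoresis after RT-PCR and HpaI digestion. Source: HepG2 cells carrying PXR-GAL4/UAS reporter constructs, treated 24 h; activity fitted upward relative to DMSO.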

Read-out in experiment [4]: Interleukin-6 (IL6), IL6 (gene 3569)
In words: BSK_CASM3C_IL6: BioMAP Diversity Plus: CASM3C Assay for Interleukin-6 (IL6) Biomarker Activity for (AID 2283040). The settings on record: actives raise or lower the signal; primary human coronary artery smooth muscle cells.

Experiment [5] deals with Cytochrome P450 2C19 (Homo sapiens) (UniProt P33261). Description: NVS_ADME_hCYP2C19: NovaScreen (NVS) CYP450-related Enzyme Activity (ADME) Assay for human CYP2C19 (AID 2283113; active = hit-call score of the fitted dose curve at least 0.9, where 1 is the maximum;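 note: potency for inhibition seen as loss of fluorescent signal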). In outline:
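Chemicals first screened in duplicate at 10 uM against recombinant human enzyme produced in insect cells; confirmed actives then run as concentration series. Fluorogenic substrate turnover read by fluorescence after 1 h, normalised to acetonitrile.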

Experiment [6] is described as follows: CPHEA_Stoker_NIS_Cytotoxicity: Cytotoxicity Assessment for CPHEA's Radioactive Iodide Uptake (RAIU) Assay for Sodium/Iodide Symporter (NIS) Inhibition, Stoker and Laws Labs (AID 2283897; active = hit-call score of the fitted dose curve at least 0.9, where 1 is the maximum;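 note: active means loss of ATP signal versus DMSO meaning cytotoxicity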). In outline:
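Viability in hNIS-HEK293T-EPA cells is scored as a drop in luciferase-detected ATP following 2-hour room-temperature exposure (0.001–100uM; triplicate wells, three cell passages), with DMSO as negative control.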

Experiment [7] concerns the target Aryl hydrocarbon receptor (Homo sapiens) (UniProt P35869). In words: ATG_Ahr_CIS: Attagene CIS-FACTORIAL HepG2 Assay for human Aryl Hydrocarbon Receptor (Ahr) (AID 2282930). The note with it: HepG2 AhR cis-factorial reporter transcription; actives raise or lower the signal. In outline:
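Read-out: reporter mRNA quantified by RT-PCR with fluorescent primer extension and capillary electrophoresis. Human HepG2 liver cells carried transfected cis-promoter reporter units and were exposed to chemical for 24 h; gain or loss fitted relative to DMSO.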

The nature of experiment [8]: ATG_VDRE_CIS: Attagene CIS-FACTORIAL HepG2 Assay for human Vitamin D Receptor Element (VDRE) (AID 2282968). The settings on record: HepG2 VDRE cis-reporter transcription, actives raise or lower the signal. The procedure, abridged: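 Transiently transfected HepG2 cells carrying cis-regulated reporter transcription units were exposed for 24 h. Reporter mRNA was measured by RT-PCR with fluorescent labelling and capillary electrophoresis, and fitted in both directions against DMSO.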

Experiment [9] in a line: BSK_hDFCGF_Proliferation: Cell Proliferation Assessment in the BioMAP Diversity Plus: hDFCGF Assay (AID 2283059).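 Note: curves fitted for both rise and fall of signal versus DMSO baseline.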 The settings on record: primary human foreskin fibroblasts. In outline: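 This proliferation readout used SRB total-protein staining of human foreskin fibroblasts […], normalized to DMSO with bidirectional curve fitting.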
Experiment [10] concerns the target human Dopamine Transporter (DAT), SLC6A3 (gene 6531) (UniProt Q01959). In words: NVS_TR_hDAT: NovaScreen (NVS) Transporter Assay for human Dopamine Transporter (DAT) (AID 2283374; active = hit-call score of the fitted dose curve at least 0.9, where 1 is the maximum;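 note: activity means loss of bound radioligand signal relative to DMSO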). In outline:
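Cell-free radioligand displacement binding at human DAT, 1 h after dosing, with filtration and scintillation counting. Primary screen in duplicate at 25 uM, actives then in concentration series. Loss of bound signal versus DMSO scored.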

Experiment [11] is described as follows: CEETOX_H295R_OHPREG: CeeTox H295R High-throughput Steroidogenesis Assay for OH-Pregnenolone (OHPREG) (AID 2283434). The note with it: actives raise or lower the signal. In outline:
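H295R cells pre-stimulated 48 h with 10 uM forskolin, then exposed 48 h to chemical in 0.1% DMSO. 17alpha-hydroxypregnenolone in medium quantified by MTBE extraction and HPLC-MS/MS; bidirectional fit versus DMSO, viability checked by MTT.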

A short description of experiment [12]: CEETOX_H295R_PROG: CeeTox H295R High-throughput Steroidogenesis Assay for Progesterone (PROG) (AID 2283442).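 Note: human H295R adrenal cells primed with 10 µM forskolin before dosing; progesterone secreted into medium by H295R cells measured by HPLC-MS/MS.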 The note with it: actives raise or lower the signal. In outline:
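Adrenal H295R line, forskolin-stimulated (10 uM, 48 h) before dosing. 48 h exposure, 0.1% DMSO vehicle. Secreted progesterone by reverse-phase HPLC with ESI+ MS/MS quantification; DMSO-normalised bidirectional curve fit.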

Sequence of UniProt Q01959 (Q01959 whole entry, looked up): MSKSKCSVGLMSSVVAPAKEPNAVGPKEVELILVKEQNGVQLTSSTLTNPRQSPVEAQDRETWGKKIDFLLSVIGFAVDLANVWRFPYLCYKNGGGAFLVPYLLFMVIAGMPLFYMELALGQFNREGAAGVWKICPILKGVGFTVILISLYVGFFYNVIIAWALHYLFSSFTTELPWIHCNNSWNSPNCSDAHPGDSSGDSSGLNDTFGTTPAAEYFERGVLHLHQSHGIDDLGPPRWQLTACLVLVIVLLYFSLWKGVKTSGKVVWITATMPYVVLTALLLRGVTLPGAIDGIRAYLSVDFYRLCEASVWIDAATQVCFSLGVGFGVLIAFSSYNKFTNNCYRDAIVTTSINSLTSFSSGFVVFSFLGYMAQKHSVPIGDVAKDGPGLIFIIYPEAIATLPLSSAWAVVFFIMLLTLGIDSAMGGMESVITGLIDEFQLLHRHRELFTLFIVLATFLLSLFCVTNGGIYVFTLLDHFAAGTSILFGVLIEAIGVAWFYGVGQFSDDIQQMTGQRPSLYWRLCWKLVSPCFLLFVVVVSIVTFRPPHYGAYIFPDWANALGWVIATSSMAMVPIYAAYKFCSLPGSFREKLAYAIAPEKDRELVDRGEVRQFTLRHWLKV
Sequence of UniProt O75469 (O75469 whole entry, looked up, the tested form may be a part): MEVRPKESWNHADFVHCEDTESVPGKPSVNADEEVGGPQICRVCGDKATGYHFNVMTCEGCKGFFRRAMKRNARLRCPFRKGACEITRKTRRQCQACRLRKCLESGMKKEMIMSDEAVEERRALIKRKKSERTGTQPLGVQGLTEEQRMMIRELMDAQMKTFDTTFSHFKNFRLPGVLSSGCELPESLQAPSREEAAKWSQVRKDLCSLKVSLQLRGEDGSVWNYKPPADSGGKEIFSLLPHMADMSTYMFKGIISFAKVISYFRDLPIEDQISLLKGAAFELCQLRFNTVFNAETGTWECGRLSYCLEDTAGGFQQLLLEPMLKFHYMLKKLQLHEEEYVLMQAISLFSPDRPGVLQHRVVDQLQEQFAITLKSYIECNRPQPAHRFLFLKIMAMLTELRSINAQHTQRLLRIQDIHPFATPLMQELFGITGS
Sequence of UniProt P08047 (P08047 whole entry, looked up): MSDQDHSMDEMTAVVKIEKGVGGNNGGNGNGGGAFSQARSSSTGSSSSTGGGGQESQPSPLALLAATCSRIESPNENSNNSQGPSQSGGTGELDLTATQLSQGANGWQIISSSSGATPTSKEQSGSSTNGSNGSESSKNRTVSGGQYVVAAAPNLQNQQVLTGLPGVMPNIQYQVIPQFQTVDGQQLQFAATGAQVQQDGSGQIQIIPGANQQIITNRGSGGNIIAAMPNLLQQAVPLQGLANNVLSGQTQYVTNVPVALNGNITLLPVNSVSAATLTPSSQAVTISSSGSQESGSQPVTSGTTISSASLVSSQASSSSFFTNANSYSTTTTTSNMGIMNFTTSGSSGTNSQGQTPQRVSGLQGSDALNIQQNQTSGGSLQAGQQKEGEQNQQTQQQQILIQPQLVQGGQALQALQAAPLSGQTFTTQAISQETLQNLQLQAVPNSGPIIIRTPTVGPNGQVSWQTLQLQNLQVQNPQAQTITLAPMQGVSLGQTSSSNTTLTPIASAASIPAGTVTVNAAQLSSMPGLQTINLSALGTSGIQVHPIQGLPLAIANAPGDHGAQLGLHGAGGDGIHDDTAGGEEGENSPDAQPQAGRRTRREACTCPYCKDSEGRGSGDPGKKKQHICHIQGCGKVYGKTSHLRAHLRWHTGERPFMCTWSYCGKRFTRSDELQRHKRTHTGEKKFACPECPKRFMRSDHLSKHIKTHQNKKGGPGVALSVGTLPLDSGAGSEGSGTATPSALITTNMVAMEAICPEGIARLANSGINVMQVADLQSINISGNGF
Sequence of UniProt P35869 (P35869 whole entry, looked up): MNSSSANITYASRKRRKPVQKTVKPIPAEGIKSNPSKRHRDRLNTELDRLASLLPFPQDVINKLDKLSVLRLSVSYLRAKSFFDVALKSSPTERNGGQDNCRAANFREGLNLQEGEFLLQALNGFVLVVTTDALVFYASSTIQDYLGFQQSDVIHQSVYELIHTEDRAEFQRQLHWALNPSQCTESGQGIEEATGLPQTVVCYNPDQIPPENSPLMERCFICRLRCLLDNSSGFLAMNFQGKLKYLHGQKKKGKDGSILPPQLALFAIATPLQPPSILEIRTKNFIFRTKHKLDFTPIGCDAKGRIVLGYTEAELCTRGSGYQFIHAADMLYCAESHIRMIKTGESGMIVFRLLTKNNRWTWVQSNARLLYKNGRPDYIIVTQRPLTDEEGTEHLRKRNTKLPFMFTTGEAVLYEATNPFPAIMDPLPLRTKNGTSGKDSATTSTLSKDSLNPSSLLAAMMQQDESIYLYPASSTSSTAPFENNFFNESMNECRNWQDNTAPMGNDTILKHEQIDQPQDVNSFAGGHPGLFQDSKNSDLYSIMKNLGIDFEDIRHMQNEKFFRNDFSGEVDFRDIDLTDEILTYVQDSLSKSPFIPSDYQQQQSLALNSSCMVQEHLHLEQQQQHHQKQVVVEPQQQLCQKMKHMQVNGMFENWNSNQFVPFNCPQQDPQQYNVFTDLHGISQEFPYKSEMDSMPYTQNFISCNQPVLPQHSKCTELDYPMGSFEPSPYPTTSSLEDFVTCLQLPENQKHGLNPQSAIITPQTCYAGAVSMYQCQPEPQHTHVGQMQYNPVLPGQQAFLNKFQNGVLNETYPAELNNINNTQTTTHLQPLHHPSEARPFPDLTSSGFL
Sequence of UniProt P33261 (P33261 whole entry, looked up): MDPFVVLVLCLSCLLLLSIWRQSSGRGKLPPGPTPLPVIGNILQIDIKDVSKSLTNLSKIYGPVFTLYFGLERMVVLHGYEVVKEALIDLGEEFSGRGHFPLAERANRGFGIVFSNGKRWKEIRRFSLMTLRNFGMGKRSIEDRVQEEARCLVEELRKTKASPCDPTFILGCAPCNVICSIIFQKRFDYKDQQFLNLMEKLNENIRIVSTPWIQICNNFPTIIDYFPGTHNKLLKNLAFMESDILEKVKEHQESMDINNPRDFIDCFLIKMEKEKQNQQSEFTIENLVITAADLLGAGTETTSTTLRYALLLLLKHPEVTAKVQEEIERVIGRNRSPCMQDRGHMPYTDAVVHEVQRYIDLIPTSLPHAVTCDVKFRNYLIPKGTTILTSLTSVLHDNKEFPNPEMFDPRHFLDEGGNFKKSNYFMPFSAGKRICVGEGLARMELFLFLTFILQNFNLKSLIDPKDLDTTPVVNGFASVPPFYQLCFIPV

As for `Oc1cc(Cl)ccc1Oc1ccc(Cl)cc1Cl`, the AC50 result in [1] is “active: 7.31, 14.3, 15.6, 5.08, 13.3, 5.97 µM [separate samples]”; in experiment [2] it was “active: 16.1, 4.75, 17.3, 8.52 µM [separate samples]”; in experiment [3] it was “active: 4.06, 6.1, 6.27, 11.3, 3.52, 5.64, 5.97 µM [separate samples]”; in [4], “active: 559 nM, 31.6 µM, 35.3 µM, 32.5 µM [separate samples]”; in experiment [5], “active: 2.43, 2.1, 2.82, 10 µM [separate samples]”; in experiment [6] it was “active: 50, 72.2, 9.92, 13, 27.8, 42.6, 32.1 µM [separate samples]”.

As for `CC(C)(C)C(O)C(Oc1ccc(Cl)cc1)n1cncn1` (stereo not drawn), the AC50 result was “active: 53.5, 31.9, 41.6, 28.2, 15.9 µM [separate samples]” in experiment [7]; “active: 2.99, 2.34, 1.23, 5.51 µM [separate samples]” in [8]; “active: 3.22, 5.19, 5.54, 11.1 µM [separate samples]” in [9]; “active: 402, 133, 420, 602, 492 nM [separate samples]” in experiment [10]; “active: 525 nM, 4.31 µM, 4.24 µM, 3.63 µM [separate samples]” in experiment [11]; “active: 6.28 µM, 1.97 µM, 2.32 µM, 864 nM [separate samples]” in experiment [12].

Turning to `ClC1C(Cl)C(Cl)C(Cl)C(Cl)C1Cl` (stereo not drawn), the AC50 result in experiment [3] was “active: 814 nM, 16.5 µM, 2.71 µM, 5.31 µM [separate samples]”.
